PubChem BioAssay AID1671194 (National Center for Advancing Translational Sciences (NCATS), 2021)
About 240 (0.17%) of roughly 140,000 compounds were called active. The shares of active, inactive and inconclusive entries below differ from those in the screen. Calls come from the whole dose curve; as a rule, active = well fitted inhibition curve with a large enough effect; inconclusive = small, poorly fitted or top-dose-only effect; inactive = no such curve, though single readings can be large or run the other way. A potency beside an inconclusive call is a rough fit, not a confirmed value.

Experiment: Primary qHTS assay for inhibitors of alpha-synuclein gene (SNCA) expression; note: nearly all actives have a fitted effect of over 45% in size;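 for activity change, negative = inhibition: plate controls were DMSO cells for no effect and cell-free wells for full effect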
Settings: HEK-293 SNCA-luciferase knock-in, luminescence, 24 h; activity change, negative = inhibition: at 57.2 µM (top of the series) unless noted
Potency is the fitted concentration of half-maximal effect; tags give direction and shape of the fitted curve.

Activity change, negative = inhibition, inactive:
O=C(C1CN(C2CCCCC2)C(=O)N1)N1CCc2ccccc2C1 (configuration not stated) 3.56% [at 87.6 µM]
O=C(NC1CCCC1)c1ccc2nnc(-c3cncc(Cl)c3)n2c1 6.8%
CN(Cc1cccc(C(F)(F)F)c1)C(=O)C1CC1 0.0402% [at 87.6 µM]

Potency, inconclusive:
O=C(C1CCCCN1Cc1ccc(-c2ccsc2)cc1)N1CCC(Cc2ccccc2)CC1 (configuration not stated) 39.8 µM [inhibitor, single point]
Cc1cc(C)c(CNC(=O)c2nc(-c3cccc(O)c3)cc3c2ccn3C(C)C)c(=O)[nH]1 56.2 µM [inhibitor, single point]
Cc1ccc(C(=O)N2CCC[C@H]2c2nc(-c3ccccc3Cl)no2)cc1 39.8 µM [inhibitor, single point]
C=CCNC(=O)N[C@H]1CCN2C(=O)c3ccc(Cl)cc3NC(=O)[C@@H]2C1 1 µM [inhibitor, single point]
CCCn1ccnc1CN1CCCn2nc(-c3nc4ccccc4n3C)cc2C1 39.8 µM [inhibitor, single point]
Cc1c(Cl)cccc1-n1ncc(C(=O)Nc2ccc(F)cc2F)c1C1CCN(C(=O)OC(C)(C)C)CC1 17.8 µM [inhibitor, partial curve, poor fit]
COc1cccc(NC(=O)Cn2c(N3CCc4ccccc4C3)nc(C)cc2=O)c1 39.8 µM [inhibitor, single point]
CC(C)CCNC(=O)Nc1cc(C(=O)NCc2cccc(F)c2)ccc1N1CCCC1 1.78 µM [inhibitor, full curve, poor fit]
FC(F)(F)c1ccnc(N2CCC(OCc3cccnc3)CC2)n1 1.78 µM [inhibitor, partial curve, poor fit]
CSc1cccc(NC(=O)C2CCN(S(=O)(=O)c3ccc4[nH]c5c(c4c3)CCCCC5)CC2)c1 0.158 µM [inhibitor, partial curve, poor fit]
Cc1ccc(NC(=O)c2oc3ccc(S(=O)(=O)N4CCC5(CC4)OCCO5)cc3c2C)c(C)c1 39.8 µM [inhibitor, single point]
O=C(NCc1ccccc1Cl)c1ccc(NC(=O)N2CCSc3ncccc32)cc1 3.98 µM [inhibitor, single point]
COc1ccc(Nc2ccnc(N3CCCC(C(=O)NCc4ccc(F)cc4)C3)n2)cc1 (configuration not stated) 12.6 µM [inhibitor, partial curve]
Cc1ccc(C)c(N2CCN(CCCNC(=O)c3nnc(Cc4ccc(F)cc4Cl)o3)CC2)c1 17.8 µM [inhibitor, single point]
